# ± gives the standard deviation of the averaged measurements. The list shows a part of the results.
# Tested on: PfAP2-G AP2 domain (GST-tagged)
# Test: gcPBM binding intensity (ln(normalized median fluorescence intensity)); higher = stronger DNA binding
# Method in brief: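 GST-tagged P. falciparum DNA-binding domains produced in E. coli were incubated for 1 h on an Agilent 4 × 180k array of primer-extended double-stranded 36-bp intergenic genomic probes with negative controls. Binding intensity is the highest Masliner-normalised natural-log median intensity across replicate spots of either probe orientation, with bound protein detected by Alexa488 anti-GST antibody at 488 nm.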
row,Sequence,gcPBM binding intensity (ln)
1,AAAAATGAAAAATGAAAAATGAAAAATGAAAAATAA [CACACA_negctrl_site695],9.645 ± 0.021
2,TATCTCATAGTATACACACACACACGCGCACATATA [CACACA_site6917],10.6 ± 0.23
3,TGTATATATTATATTTGTACATATAAAACTATATGT [XGTACX_site4782],10.8 ± 0.46
4,TCACATACATTACTTACACACCATATTGATATATAC [CACACA_site6353],10.13 ± 0.035
5,TTAAATATATGTAATACGCACACTTAATATTTTGAG [CACACA_site4170],10.4 ± 0.28
6,AAAAAAAAAAAAAAAACATGCAATAAAGTGTGCGTA [TGCATGCA_site982],10.16 ± 0.057
7,TTTTGGTGGGTTACAAGTACTCAAAATGGATTGTTA [XGTACX_site1951],11.4 ± 0.83
8,TTTCGAAAAACAACAAGAAAAAAAAAAAAAAAAAAA [XGTACX_negctrl_site449],9.8 ± 0.26
9,AAACAAAAAAATTGAAATAAAATGAAGTAAATGAAC [TGCATGCA_negctrl_site129],10.1 ± 0.049
10,ACATGTCTTAAAAGACGTACATATAAAAGAACCCTA [XGTACX_site8940],11.5 ± 0.88
11,ATTAAATCCGCACGCACACACACATATTAATAAAAA [CACACA_site3992],10.6 ± 0.41
12,TAAAAAAGAAAATATATACACACCAAAAAAAAAAAA [CACACA_site3146],9.81 ± 0.24
13,ATTCCTTGGTTGTATAGTACTTTGGTTAAACATAAA [XGTACX_site6967],11 ± 0.67
14,CAATATTTGTTATGGGTGCAAACCGCATATATATAA [GTGCAC_site9543],10.4 ± 0.18
15,TTATTTTTTAAAAGTAGTACAAATTTTTATAGAAAA [XGTACX_site7407],11.5 ± 0.95
16,TATTATTTGAGTAGTTGTACTCATTAATATATAAAA [XGTACX_site3468],11.4 ± 1.1
17,AATGTGCACACGCGTACACACAAAAAAAGAAAAAAA [CACACA_site7031],11.7 ± 1.1
18,TATTAATTTCACCTTTCACATATGGAAAAAAAAAAA [CACACA_negctrl_site1243],10.1 ± 0.37
19,CAAAATATTTATATCACACATATAAATAAAAATAAA [CACACA_site6028],9.9 ± 0.18
20,ATGTTTATTTATTTATGTACTTATATATTTATATAT [XGTACX_site7924],11.3 ± 0.91
21,AATAAAAATAAAAATTGTACACTTTTTTAATATTTA [XGTACX_site892],11.3 ± 0.72
22,TTTCCAAATACAACTACACACAAACAAAAATTATAT [CACACA_site4641],10.2 ± 0.23
23,ATTAACATTTTCGTATGTACATATATAATATATGTT [XGTACX_site7184],11.1 ± 0.64

row,Sequence,gcPBM binding intensity (ln)
1,TATATATATATGTGCACACATAATAAAAAAAAAAAT [CACACA_site3831],10.6 ± 0.69
2,TATAAAGCATATTAAAGTACTTATTTTCCTTTTTCT [XGTACX_site8892],11.1 ± 0.57
3,TTTTATTTTATTCTTAAATAAGTATTATAAAATATG [XGTACX_negctrl_site201],10.2 ± 0.39
4,TTATTTGAACAATATGCACACATTTTATTTATTTTA [CACACA_site3420],10.035 ± 0.007
5,TTAATGTTGTATGGTTGTACAATAAGCCCCTTTTAA [XGTACX_site2484],11.1 ± 0.47
6,GTAAAATAAAATATATGTACATATGTATATGAGGTA [XGTACX_site3743],11.4 ± 1
7,GACATATTCCCCCCCACACACACACCCACATACATA [CACACA_site2302],11.8 ± 0.71
8,TTTTGATCATCCAAAATATCTTCATCTGAACTACTA [CACACA_negctrl_site939],9.84 ± 0.042
9,TATGATGATATAAAAACACACACATATAATATAATA [CACACA_site8321],10.04 ± 0.035
10,TTAAAGCTTACATATACACACATACATAAATTCATA [CACACA_site8785],10 ± 0.11
11,CTACATATTAATATATGTACATATTAATATATCTAA [XGTACX_site7118],11.3 ± 0.66
12,ATATATACATATAAATGTACATAATTATTATGCACA [XGTACX_site1261],10.8 ± 0.58
13,ATAAAAAGAAAAAAGGGTACACTATACTATTTAAAA [XGTACX_site4467],11.4 ± 0.95
14,TGTTGATAAAAAATAAAAAATAAAAAAATAAAATAT [TGCATGCA_negctrl_site559],9.65 ± 0.071
15,TACCCTGATCGGCATGCATGTAAGTAACAAATATAT [TGCATGCA_site153],10.2 ± 0.25
16,ATTTAGAAATATATTTGTACATATATATATATATAT [XGTACX_site7129],10.7 ± 0.46
17,ATTCAAACAAATTAATGTACATATATATAAGATATT [XGTACX_site1531],11.1 ± 0.46
18,AATATAATATAATGCACACATAAAAAAAAAATCAAA [CACACA_site122],10.1 ± 0.29
19,AAAACAAAATTATGAACATGCAAGGTAAAATTGTAA [TGCATGCA_site775],10.165 ± 0.007
20,ATGTAGTTTTATCAGTGTACAAGTATTTTATCACAT [XGTACX_site8958],11.4 ± 0.73
21,GTACAAATGTTGTGTATATATACACACATACATATA [XGTACX_negctrl_site276],10.9 ± 0.46
22,AACTTACTTGGACATACACACATATAGATTTATATA [CACACA_site7412],10.7 ± 0.4

# — the supplement of paper PMC11417369
